Out of some 410,000 compounds screened, about 850 (0.21%) were called active. The inconclusive results got no clear call from the source; some entries with a clear call stand among them for comparison. Calls come from the whole dose curve; as a rule, active = well fitted inhibition curve with a large enough effect; inconclusive = small, poorly fitted or top-dose-only effect, or another doubt; inactive = no such curve, though single readings can be large or run the other way. Where the call is inconclusive, the potency comes from a doubtful curve fit.
Biological target: Glutaminase kidney isoform, mitochondrial (Homo sapiens) (UniProt O94925)
Test: qHTS for Inhibitors of Glutaminase (GLS)
Conditions: GLS enzymatic activity, qHTS titration; series mostly up to 45.5 µM; activity change, negative = inhibition: at the top concentration
In short: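 Assay buffer: 45 mM KH2PO4 pH 8.2, 0.02% Tween-20. hKGA acts on L-glutamine (1 mM solution added); product glutamate is reported by an oxidase/peroxidase Amplex Red coupling, with fluorescence taken at baseline and 30 min.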
% is set by controls: 0 for no effect and ±100 for the full control effect; potency is the fitted concentration of half-maximal effect; tags give direction and shape of the fitted curve.

UniProt O94925, sequence (O94925 whole entry, looked up, canonical isoform): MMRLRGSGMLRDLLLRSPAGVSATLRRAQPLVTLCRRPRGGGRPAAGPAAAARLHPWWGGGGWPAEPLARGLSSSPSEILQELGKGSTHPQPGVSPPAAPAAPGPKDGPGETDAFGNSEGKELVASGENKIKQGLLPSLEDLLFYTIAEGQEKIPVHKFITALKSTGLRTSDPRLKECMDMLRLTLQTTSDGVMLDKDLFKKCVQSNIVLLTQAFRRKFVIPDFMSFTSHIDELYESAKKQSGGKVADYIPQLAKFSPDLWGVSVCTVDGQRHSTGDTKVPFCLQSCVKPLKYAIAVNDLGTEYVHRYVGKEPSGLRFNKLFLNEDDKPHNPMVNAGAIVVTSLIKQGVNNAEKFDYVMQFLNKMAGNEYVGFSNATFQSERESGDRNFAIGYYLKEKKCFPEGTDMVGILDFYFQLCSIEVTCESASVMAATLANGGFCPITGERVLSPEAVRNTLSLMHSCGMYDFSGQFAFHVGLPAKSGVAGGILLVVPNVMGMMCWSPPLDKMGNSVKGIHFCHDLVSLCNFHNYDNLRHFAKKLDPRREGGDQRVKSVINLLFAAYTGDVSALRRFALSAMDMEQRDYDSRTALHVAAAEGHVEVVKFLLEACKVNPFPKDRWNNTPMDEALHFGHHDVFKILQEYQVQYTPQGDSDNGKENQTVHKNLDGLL

Potency, inconclusive:
Cc1nc(-c2ccccc2)sc1C(=O)/C=C/N(C)C 31.6 µM [inhibitor, single point]
Cc1ccc(/C=C(\C#N)c2nc3ccccc3[nH]2)s1 6.31 µM [inhibitor, single point]
Cn1cccc1C(=O)OCC(=O)Nc1cc(C(C)(C)C)nn1-c1ccccc1 15.8 µM [inhibitor, single point]
O=C(NC1CCCCC1)C(c1ccc(O)c(O)c1)N(C(=O)Cn1nnc2ccccc21)c1cccc(O)c1 (centres undefined) 2.51 µM [inhibitor, full curve]
S=c1[nH]nc(Nc2ccccc2)s1 35.5 µM [inhibitor, single point]
Cc1ccc(NC(=O)C[n+]2cc(-c3ccccc3)n3c2CCC3)c(C)c1 2.51 µM [inhibitor, partial curve, poor fit]
O=C(O)CCn1nc(-c2ccc(F)cc2)cc(Cc2ccccc2)c1=O 2.51 µM [inhibitor, full curve, poor fit]
Cc1cccc(NC(=O)C2CC(=O)n3ncnc3N2)c1 (centres undefined) 17.8 µM [inhibitor, single point]
Cc1cc(OCC(O)CN2CCN(CCO)CC2)ccc1C(C)C (centres undefined) 0.631 µM [inhibitor, full curve, poor fit]
CN(CC(=O)Nc1cccc(F)c1)C(=O)c1cc(-c2ccco2)nc2ccccc12 20 µM [inhibitor, single point]
O=C(C1CCN(S(=O)(=O)c2ccccc2)CC1)N1CCCCC1 0.282 µM [inhibitor, full curve, poor fit]
CCOC(=O)C1=C(C)NC(=S)N(C(C)=O)C1c1ccc(Cl)cc1 (centres undefined) 35.5 µM [inhibitor, single point]
C=CCOc1ccccc1CNc1ccc2c(c1)OCCO2 17.8 µM [inhibitor, single point]
Cc1ccccc1CC1(CO)CCCN(C(=O)c2ccc3ncccc3c2)C1 (centres undefined) 17.8 µM [inhibitor, single point]

Activity change, negative = inhibition, inactive:
Cc1ccc(SCCC(=O)NCc2ccncc2)cc1 0.899%
NS(=O)(=O)c1cccc(NS(=O)(=O)c2ccc(/C=C/C(=O)OCC(=O)c3ccc(Br)cc3)cc2)c1 1.07%
Cc1c(OCC(=O)NCc2ccccn2)ccc2c3c(c(=O)oc12)CCCC3 -10%
O=C(O)CCC(=O)Nc1ccc(-n2ccc(C(F)(F)F)n2)cc1 3.2%
Clc1cccc(CN2CCc3c([nH]c4ccccc34)C2)c1 3.5%

Reference: PubChem BioAssay AID624170 (National Center for Advancing Translational Sciences (NCATS), 2012)
